# Whole data set: some 33,000 sequences, median “E-score (-0.5 to 0.5)” near -0.035, cut for the highest 2% near 0.34. Some of the results follow.
# Biological target: T1, Mot3 (UniProt P54785)
# T1 sequence: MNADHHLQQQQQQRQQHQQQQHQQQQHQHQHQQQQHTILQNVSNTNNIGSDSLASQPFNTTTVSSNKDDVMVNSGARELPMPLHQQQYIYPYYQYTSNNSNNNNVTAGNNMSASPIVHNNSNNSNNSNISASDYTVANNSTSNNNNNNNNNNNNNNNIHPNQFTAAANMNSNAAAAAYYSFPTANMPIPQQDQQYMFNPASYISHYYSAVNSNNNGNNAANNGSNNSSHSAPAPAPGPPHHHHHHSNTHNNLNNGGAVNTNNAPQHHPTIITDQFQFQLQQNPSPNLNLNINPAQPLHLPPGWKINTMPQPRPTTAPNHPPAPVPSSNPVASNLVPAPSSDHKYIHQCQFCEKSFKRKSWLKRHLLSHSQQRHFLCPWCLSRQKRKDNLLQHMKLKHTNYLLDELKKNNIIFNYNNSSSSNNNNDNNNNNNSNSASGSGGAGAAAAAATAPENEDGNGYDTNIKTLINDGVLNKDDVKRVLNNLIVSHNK
# Test: PBM E-score (8-mer binding enrichment) (E-score (-0.5 to 0.5)); higher = stronger / more preferred TF binding; most listed sequences are background and not binding sites
# Conditions: protein concentration: 200 nM; construct: GST-full length
# Procedure: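 Universal 'all 10-mer' protein binding microarrays (Agilent AMADID 015681) probed with GST-tagged S. cerevisiae TFs (full-length or DBD) made by in vitro transcription/translation (PURExpress), about 100-200 nM. Bound TF was detected with fluorescent anti-GST. Each ungapped 8-mer (which stands for itself and its reverse complement) is scored by the PBM enrichment score (E-score), a modified Wilcoxon-Mann-Whitney statistic from -0.5 to +0.5, computed with the Universal PBM Analysis Suite. Scale: above 0.35 generally sequence-specific binding.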
row,Sequence,PBM E-score
1,CAAATACG,0.095
2,AACGAATG,0.0901
3,CAGTATAC,0.00052
4,CTCAACTC,-0.173
5,CCGGTCAC,-0.221
6,AGAAACTC,-0.0763
7,CCAACGGA,-0.26
8,ACCGCGTA,0.28
9,AACGATCT,-0.111
10,ATACAGGA,0.173
11,GCTACTCA,-0.175
12,AGCGCACT,-0.288
13,ACCATCGG,-0.284
14,CGAAGTGA,-0.0597
15,ACAAGTGA,0.103
16,CACTAACC,0.0279
17,GACACCCC,-0.251
18,AGGACAGC,-0.28
19,AGCGCGCC,-0.0957
20,ATGAGCAA,-0.0849
21,AAGACGAT,-0.0375
22,GCGTACTA,0.199

row,Sequence,PBM E-score
1,ACTGTTAG,-0.0936
2,AGTCTACC,-0.233
3,GCTCCGCC,-0.238
4,AGGGACCA,-0.201
5,GCATAGAC,-0.0664
6,AGAAACAT,0.233
7,ACGTTCGG,-0.256
8,GCACGAGC,-0.142
9,ACCCTGCC,-0.333
10,GGCTCGCA,-0.0707
11,GATGCGAA,-0.142
12,ATGTATCC,0.19
13,GCACAATA,0.0637
14,ATTGGAAG,0.0857
15,ACCTAAGA,0.212
16,CCGATTTA,-0.165
17,AGGAATAA,0.105
18,ACAAATCT,0.103
19,ATACCATG,-0.0209
20,CAAGACTG,0.0139
21,GATCAAGC,0.0595
22,AGGGGTGG,-0.248

row,Sequence,PBM E-score
1,CGCCTGGC,-0.0806
2,ACAAGACG,0.0472
3,GAGCACCA,-0.243
4,CACACGTG,0.256
5,CCGCCAAG,-0.196
6,CATCCGTA,-0.0281
7,AGTAAGGG,-0.148
8,ATCTAGTG,-0.145
9,TGTCGAAA,0.216
10,CGACTTAA,0.0339
11,CGAACTGC,-0.178
12,CTCCTGCC,-0.111
13,GGCAATAA,0.227
14,AGAAACTG,-0.103
15,GGAAAGCA,0.175
16,CTGGTGAC,-0.265
17,CAGATTGA,0.0135
18,CAATAGTG,-0.0795
19,GGTGGAGA,-0.275
20,CCAACATC,0.0605
21,CTACACCA,0.118
22,ATTCACCA,-0.00515

row,Sequence,PBM E-score
1,CTTGTACA,0.325
2,ACACGTCT,0.286
3,AAACGAGC,0.1
4,AATCTAAG,-0.0411
5,TCTTGGCA,-0.0135
6,AGTTTAAT,0.0624
7,CCTGAGCC,-0.0612
8,ACATGGTC,0.207
9,AAACCGCT,-0.106
10,GAAGAGTA,0.109
11,AACGACAG,-0.00709
12,GACGCCAA,-0.106
13,AAATAGAG,0.103
14,CCAAGCTA,-0.132
15,CGGGAACA,0.147
16,ACCAAGCC,0.0544
17,AGTTGTGG,0.0483
18,AAGGCTAC,0.234
19,CGTTCTGC,-0.0722
20,ACGTGTGG,0.0951
21,CTCGGCAC,-0.181
22,TAGCCGGA,-0.292

row,Sequence,PBM E-score
1,GGGCAAAC,0.0101
2,CCCAGAAA,0.0712
3,TCATACCA,-0.0345
4,ACAGGATA,0.153
5,AGATTGAA,0.0943
6,TCTCCGAA,-0.0332
7,AACATACC,0.255
8,ATACCTCC,-0.153
9,ACGCTCCA,0.0237
10,CCCGCCCG,-0.0534
11,ACCTCCCC,-0.0577
12,GCGGTAAA,0.135
13,GATATCAA,-0.00647
14,GAACTGCA,-0.0979
15,GACTCCAA,-0.159
16,TGTGGCAA,-0.0312
17,CATGGGAG,-0.0675
18,CAAGACTA,-0.0102
19,ACACTGAA,0.225
20,GCGACAAA,-0.122
21,ATCTCAAA,0.0373

# Source: the supplement of paper PMC3334620
